In the supplement of paper PMC3334620:
The full ranking holds about 33,000 sequences; the median of “E-score (-0.5 to 0.5)” is about -0.04, and the highest 2% start at about 0.36. Some of the results follow.

What follows are sequences tested against T1, Hmlalpha2 (UniProt P0CY09) (assay: PBM E-score (8-mer binding enrichment) (E-score (-0.5 to 0.5)); higher = stronger / more preferred TF binding; most listed sequences are background and not binding sites). Settings: protein concentration: 200 nM; construct: GST-full length.
T1 sequence: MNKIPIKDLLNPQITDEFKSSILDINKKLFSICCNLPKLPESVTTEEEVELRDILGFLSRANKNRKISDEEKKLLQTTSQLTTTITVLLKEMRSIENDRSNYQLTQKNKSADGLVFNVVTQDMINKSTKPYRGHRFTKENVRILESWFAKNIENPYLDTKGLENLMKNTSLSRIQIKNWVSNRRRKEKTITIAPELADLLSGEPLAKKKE
Protocol: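 Universal 'all 10-mer' protein binding microarrays (Agilent AMADID 015681) probed with GST-tagged S. cerevisiae TFs (full-length or DBD) made by in vitro transcription/translation (PURExpress), about 100-200 nM. Bound TF was detected with fluorescent anti-GST. Each ungapped 8-mer (which stands for itself and its reverse complement) is scored by the PBM enrichment score (E-score), a modified Wilcoxon-Mann-Whitney statistic from -0.5 to +0.5, computed with the Universal PBM Analysis Suite. Scale: above 0.35 generally sequence-specific binding.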

Row | Sequence | PBM E-score
1 | CCCGCAGA | -0.18
2 | TCTACACA | 0.445
3 | AAAACCCC | -0.134
4 | TCCCCCCA | -0.331
5 | CAAATGAA | 0.0294
6 | CGGTATTC | 0.0271
7 | AAAGTTAT | 0.209
8 | CCAGATAG | -0.176
9 | GGTATGAA | 0.0704
10 | GGGTTGCA | -0.0367
11 | CTGCGTGA | 0.0311
12 | AAGATTGC | -0.0744
13 | ATTATATC | 0.0602
14 | GAGCCCAA | -0.209
15 | CTCGAGTC | -0.178
16 | CATGCACC | 0.108
17 | ATGGAGAC | -0.149
18 | ATCTCGTA | 0.191
19 | ACGTAAGC | 0.0597
20 | AACGGAGT | 0.0457
21 | GCTAGCTA | 0.0011
22 | CGAGGTGC | -0.0496
23 | GGTTAGAA | -0.232
24 | TACTAGAA | 0.0746
25 | GGCTCTAA | -0.0554

Row | Sequence | PBM E-score
26 | AGCAAATA | 0.0713
27 | CAAGGGTC | -0.199
28 | GCAGCTCC | -0.276
29 | CCCGCTTA | -0.116
30 | AGGTCAAG | -0.0752
31 | CGTAACGC | 0.193
32 | CAGCCATG | 0.14
33 | GTTGCGTA | 0.378
34 | CGAAATAC | 0.238
35 | AAGCTATA | 0.0529
36 | GGTGAAAC | -0.0316
37 | ACATGACC | 0.38
38 | GTACGAGA | 0.0653
39 | TCAGATCA | -0.0646
40 | AGTAAGAC | 0.0442
41 | GAAACTCC | -0.211
42 | CTTTTATC | -0.157
43 | CTTGTCCC | -0.12
44 | ATTTCGAA | 0.131
45 | CAGGCGAC | -0.253
46 | AGTGTGGG | -0.258
47 | AATGCTAA | -0.0251
48 | GGCGATTA | -0.0499
49 | AGCAAAGG | -0.0572
50 | ACGCAGAG | 0.0628

Row | Sequence | PBM E-score
51 | GGTTAAGA | 0.148
52 | CTATCTGA | -0.317
53 | GCCGTCGC | -0.0824
54 | ACGCTTTA | 0.0657
55 | TAATCTGA | 0.14
56 | CAGGTCAC | -0.266
57 | CGATTTCC | -0.213
58 | GGCAGATA | -0.153
59 | CCCACCGA | -0.267
60 | ATCACGAT | -0.0443
61 | GTAGTACA | 0.313
62 | GGACAGGA | -0.158
63 | ACGCTAAG | -0.0342
64 | GTGTGAAA | 0.336
65 | ATCGAAGG | -0.0945
66 | ATGTGCTA | 0.0958
67 | AACTTGAG | -0.122
68 | AGTAACTC | -0.0308
69 | GTCCCACA | -0.151
70 | CATCCACA | -0.0215
71 | CGACCATC | -0.216
72 | AATTCCGG | -0.101
73 | GAGCTAAC | -0.0046
74 | AGTCAGTC | -0.146
75 | ACCCCAAT | -0.053

Row | Sequence | PBM E-score
76 | GCCGGCCA | -0.131
77 | ACTCAACC | 0.0477
78 | CGATGCCG | -0.223
79 | CCCATCCA | -0.0462
80 | CAAAGCAA | 0.138
81 | CGAGCGGC | -0.125
82 | GCCAAACC | -0.282
83 | GTGAGACA | -0.267
84 | ATCCTATC | -0.177
85 | AGTCCTTC | -0.206
86 | ATAGGAAA | 0.0311
87 | ATAATTTC | -0.00586
88 | GCTCCTCA | -0.383
89 | AGTCAGTA | 0.0664
90 | TATACTCA | 0.203
91 | CCGAAGAA | -0.226
92 | ACGAACCC | -0.164
93 | CTCGTATC | -0.0652
94 | AATCACGA | -0.00705
95 | CGGTTTCC | -0.188
96 | CAACAGTC | -0.184
97 | CCCTAGGA | -0.26
98 | AGGTACAT | 0.288
99 | CGTGCATA | 0.086
100 | TTAGATAA | -0.0444

Row | Sequence | PBM E-score
101 | TCGGACAA | -0.073
102 | ATGGTCCA | -0.0321
103 | ATAAGGTG | 0.157
104 | GACATCGC | -0.0415
105 | CCCCATCC | -0.192
106 | CACAAAAC | 0.225
107 | GAATTATC | 0.0133
108 | ATGTCCGC | -0.0726
109 | CTGTCTGA | -0.162
110 | TCTGTCAA | 0.0538
111 | TGAGCAAA | 0.11
112 | TCGATCAA | -0.00953
113 | AGAACGCA | 0.124
114 | CAATAACA | 0.239
115 | CAAGCTGC | -0.145
116 | CCAAGGAC | -0.222
117 | AGTGCTAC | 0.0795
118 | AGAATTGC | -0.161
119 | GCTCATCA | -0.0692
120 | CCTACATC | -0.107
121 | ACAGACAC | 0.0876
122 | GCCATCCC | -0.23
123 | ACTATTCT | 0.0244
124 | CGTGCTTA | 0.19
125 | CAATATAC | 0.131

Row | Sequence | PBM E-score
126 | CTCGCGTC | 0.113
127 | ACCGCATA | 0.0308
128 | CCGGCGTC | -0.0795
129 | AGTTGACA | 0.293
130 | ACACCGAT | 0.0503
131 | GCGACTCA | -0.134
132 | GAAAATTA | 0.253
133 | GGAACAAA | 0.0948
134 | CAGGCTCG | -0.0427
135 | CTAACTAC | 0.125
136 | GTCCCAAA | -0.125
137 | TCACGTGA | 0.13
138 | GTAGGACA | 0.063
139 | CCGACGGA | -0.187
140 | CATTTGAC | 0.024
141 | ACGGCAAT | 0.0808
142 | CTTGAGCA | -0.0765
143 | CCACGTCG | -0.134
144 | AGAATCAC | -0.0349
145 | ACAACGGG | 0.095
146 | GCTTACTA | 0.157
147 | ACTCACCG | -0.103
148 | CCAGGCTA | -0.281
149 | CGACTAGA | -0.0368
150 | CGGAATCC | -0.281

Row | Sequence | PBM E-score
151 | CTCGTGCA | -0.126
152 | CGCGATAC | 0.12
153 | AATCCATA | 0.00815
154 | CGTAGGAC | -0.212
155 | GACACAAA | 0.14
156 | CCTTTCTA | 0.0802
157 | ACAAGAAA | 0.207
158 | ACCAGGAC | 0.0306
159 | AGGCGAGA | -0.285
160 | AGAATGAG | 0.0137
161 | ACAGATCG | -0.025
162 | AAGCCTAG | -0.0469
163 | CTGCACGC | -0.165
164 | TGAGACCA | 0.0612
165 | ATCTGTTG | 0.0561
166 | GCGCTATA | -0.00498
167 | AGCTGCGG | -0.251
168 | CACGTTAA | 0.376
169 | AGTCCCGG | -0.272
170 | CTTAACAA | 0.307
171 | GAAACCCA | 0.085
172 | AGACAATC | 0.0394
173 | AAAGCTCA | 0.0369
174 | GAGCGGGC | -0.261
175 | ATGGGCAC | -0.0255

Row | Sequence | PBM E-score
176 | AGGATGAA | -0.246
177 | GCGCTCAC | -0.159
178 | ACAATGGG | 0.0325
179 | AGTATAAA | 0.209
180 | CGTCTGTA | 0.198
181 | CCCGCGTA | 0.237
182 | CCCGACAA | -0.0214
183 | CTCGGTAC | -0.155
184 | TACCGGAA | -0.137
185 | CTAGGACC | -0.378
186 | AGTAGAGA | -0.135
187 | AGTGGAGA | -0.136
188 | AAGGCTGG | -0.187
189 | CCCAAAAG | -0.0787
190 | CTCACGAC | -0.289
191 | ATAGTGGC | -0.192
192 | ATAGGGGG | -0.245
193 | AATACTCA | 0.18
194 | ACGACAGT | 0.0232
195 | TACGCGCA | 0.252
196 | CGAACATC | 0.0569
197 | AGTCTGGC | 0.00106
198 | GTCCCAGA | -0.286
199 | CCTCAGAG | -0.398
200 | CCCGTGCA | -0.228

Row | Sequence | PBM E-score
201 | AGCCTTAG | -0.129
202 | ACATTATG | 0.216
203 | AGGTGTGC | -0.173
204 | GATTGAAA | -0.021
205 | CTAGTATC | -0.112
206 | ACATGTTA | 0.461
207 | TAACACCA | 0.314
208 | CATAAGCA | 0.065
209 | AACATACT | 0.255
210 | CGACGCTA | 0.0385
211 | CTATATGC | 0.1
212 | AATTTGAA | 0.018
213 | AGCCGAGG | 0.0161
214 | CCGATAAG | -0.244
215 | GATCTAGC | -0.159
216 | TCTCGAGA | 0.0884
217 | AGGTCTAT | -0.0234
218 | AGATCAAT | -0.0554
219 | GCTTATAA | -0.0644
